± gives the standard deviation of the averaged measurements. The list shows a part of the results.

The subject of the assay is PfAP2-I AP2 domain 3 (GST-tagged). The assay can be described thus: gcPBM binding intensity (ln(normalized median fluorescence intensity)); higher = stronger DNA binding. The procedure, abridged:
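The binding buffer was 1× PBS containing 1% milk, 0.2 mg/ml BSA, 0.5% salmon testes DNA and 0.03% Triton X-100. In it, GST-tagged P. falciparum DNA-binding domains expressed in E. coli were applied for 1 h to an Agilent 4 × 180k array of primer-extended double-stranded 36-bp intergenic genomic probes plus negative controls. Binding intensity, read with Alexa488 anti-GST antibody and a 488 nm scan, is the highest Masliner-normalised natural-log median intensity across replicate spots of either probe orientation.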
Consider “AAAGCTAATATTATATGTACTTATATATTTATATAT [XGTACX_site4474]”, for which the “gcPBM binding intensity (ln)” value came to 7.53 ± 0.23.

On to “ATATAAATCTACACCGCACACAAAAACAACAAATAT [CACACA_site2506]”, for which the “gcPBM binding intensity (ln)” value is 8.44 ± 0.32.

With “AAATAAATGAAACACACACACACAAAAAAAAAAAAC [CACACA_site2625]”, the “gcPBM binding intensity (ln)” value was found to be 8.04 ± 0.6.

“CATGTGCATATTAAATGTACATATATACATATATAC [XGTACX_site857]”: the “gcPBM binding intensity (ln)” value is 9.31 ± 0.16.

Consider “ATATAGGTATTTAATACACACAAAACTTTCATTCCA [CACACA_site7627]”, for which the “gcPBM binding intensity (ln)” value amounted to 7.84 ± 0.45.

For “AAGGATGATACAACTTGTACATATTTGCTTAATATA [XGTACX_site764]”, the “gcPBM binding intensity (ln)” value stood at 7.58 ± 0.63.

For “ATATAAATATATTGCACACACAATTATTATTATTAT [CACACA_site7147]”, the “gcPBM binding intensity (ln)” value turned out to be 10.1 ± 0.45.

With “TTTTTTTTTTTCGGGGGTACTAATATATTATTAATA [XGTACX_site7809]”, the “gcPBM binding intensity (ln)” value was 10.8 ± 0.47.

Regarding “GTTTTTAAGAAAAACACACACTCCTGTTATTTTATA [CACACA_site3696]”, the “gcPBM binding intensity (ln)” value came to 7.67 ± 0.72.

Consider “AACAAAATTGAAGGAACACACATACAGATATATATA [CACACA_site4264]”, for which the “gcPBM binding intensity (ln)” value came to 7.84 ± 0.62.

For the sequence “TAATAATTAATTAATATAATATTTTTTCATAATTAT [XGTACX_negctrl_site602]”, the “gcPBM binding intensity (ln)” value turned out to be 7.22 ± 0.44.

As for “ATAGAAAAAATATACACACACTTATTAAATAAAAAT [CACACA_site7540]”, the “gcPBM binding intensity (ln)” value is 7.72 ± 0.65.

For the sequence “TATATATCAATATGCACACACAAGAAGTAATTATAA [CACACA_site7487]”, the “gcPBM binding intensity (ln)” value worked out at 8.96 ± 0.22.

On to “TAAAAAGTATATAAGAGTACACATATTTATAAATAT [XGTACX_site3084]”, for which the “gcPBM binding intensity (ln)” value was 8.03 ± 0.32.

As to “AGACTTTGTACAAACACACACATGAGCACAATATTA [CACACA_site6755]”, the “gcPBM binding intensity (ln)” value is 8.18 ± 0.6.

In the case of “ATAAACAAAGTTAAATGTACAAAGGGGTAAAAAAAA [XGTACX_site83]”, the “gcPBM binding intensity (ln)” value came to 8.22 ± 0.59.

Regarding “AACAAATTTTTTTTTCCTTTTTTTTTTTTACTTCAT [CACACA_negctrl_site1214]”, the “gcPBM binding intensity (ln)” value came out at 7.21 ± 0.79.

For “TTATTAACCAAACGCACATGCAAAATATATTATATA [TGCATGCA_site915]”, the “gcPBM binding intensity (ln)” value was 8.46 ± 0.28.

With “AAATAAATAATATGTAAACACACAAAAAATAAAAAT [CACACA_site8307]”, the “gcPBM binding intensity (ln)” value came to 7.73 ± 0.69.

“TTTTTTTTTCGGAAAAGTACAAAACTTTTTTATAAT [XGTACX_site4670]”: the “gcPBM binding intensity (ln)” value amounted to 7.72 ± 0.45.

“ACACAATTGAAATAGTGTACAAAATGTTGTTACATA [XGTACX_site8671]”: the “gcPBM binding intensity (ln)” value worked out at 7.61 ± 0.36.

As for “TTATATATATTTAAATTTTATCTCACATATATATAT [TGCATGCA_negctrl_site275]”, the “gcPBM binding intensity (ln)” value came out at 8.83 ± 0.13.

Regarding “TCCCTAAAAAATGATAAATGGAGACAATTCCGACAA [GTGCAC_negctrl_site209]”, the “gcPBM binding intensity (ln)” value amounted to 7.45 ± 0.57.

For “AAAAAAAAAAAAATCACACACAATATGAATTTATAG [CACACA_site601]”, the “gcPBM binding intensity (ln)” value was 7.54 ± 0.49.

Consider “AATACAATTTCTAGCACACAAAATATTATTATAATT [CACACA_site3223]”, for which the “gcPBM binding intensity (ln)” value came out at 8.02 ± 0.5.

As to “AAAAAACAATCTCATACACACTAGGGATTAATTATT [CACACA_site5051]”, the “gcPBM binding intensity (ln)” value stood at 7.41 ± 0.71.

As to “TATAGAAGCGTTCACACACACACATACATACCCATA [CACACA_site4915]”, the “gcPBM binding intensity (ln)” value is 8.02 ± 0.42.

“TATAAAAAATAAAAAGTTTAATGAATATTTCTTTTA [TGCATGCA_negctrl_site379]”: the “gcPBM binding intensity (ln)” value turned out to be 6.99 ± 0.46.

For the sequence “TCACATGGAAAAAAGTGTACATAATTATGTATAAAT [XGTACX_site2827]”, the “gcPBM binding intensity (ln)” value worked out at 8.05 ± 0.52.

For “ATATATATAACATATACACACGTTCATATATATATA [CACACA_site4416]”, the “gcPBM binding intensity (ln)” value was determined as 9.35 ± 0.099.

In the case of “TTACAAGTAAAAGGTACACACATTATATATACAAAT [CACACA_site8290]”, the “gcPBM binding intensity (ln)” value was determined as 7.97 ± 0.55.

“TAATTTTTATTTTATTTTATTTTTTTTTTTTTTATT [CACACA_negctrl_site1671]”: the “gcPBM binding intensity (ln)” value stood at 7.14 ± 0.49.

For “CTAGCAAATACATACACACACACACCGATACATATA [CACACA_site9164]”, the “gcPBM binding intensity (ln)” value is 8 ± 0.48.

“ACAAGACAGATATATACACACATACATACATACATA [CACACA_site7472]”: the “gcPBM binding intensity (ln)” value turned out to be 8.12 ± 0.64.

In the case of “TTTCTTAAAAAAAAAAAAAAAAGAAGATAAATAAAA [CACACA_negctrl_site289]”, the “gcPBM binding intensity (ln)” value stood at 7.37 ± 0.76.

“TTTAACTTATTCAATGCACACATTTTAATAAGATAT [CACACA_site1967]”: the “gcPBM binding intensity (ln)” value was 9.41 ± 0.59.

As to “ATATTTATTTATATTACACACATGTGCAATTAAACT [CACACA_site6928]”, the “gcPBM binding intensity (ln)” value is 9.67 ± 0.26.

With “ATATAATAGAAGTGTACACACATATTTATGTCTGTA [CACACA_site3121]”, the “gcPBM binding intensity (ln)” value was found to be 7.88 ± 0.36.

“ATGGATAACAATATGTGTACACATTTATATCTCCAC [XGTACX_site5457]”: the “gcPBM binding intensity (ln)” value came to 8.16 ± 0.2.

As for “ATACATTTTTTTTATACGCACACGTCATACTTTTAA [CACACA_site1638]”, the “gcPBM binding intensity (ln)” value is 8.7 ± 0.49.

With “AAGCATGGATATTTTACACACATTTCCACGTAACAA [CACACA_site3141]”, the “gcPBM binding intensity (ln)” value was 8.32 ± 0.6.

Take “ATACATATATATAGGTGTACATATAATATATATATA [XGTACX_site2228]”: the “gcPBM binding intensity (ln)” value was 8.95.

On to “AACCATGTTAACAATGCATGCATCACTATATAAACG [TGCATGCA_site421]”, for which the “gcPBM binding intensity (ln)” value amounted to 8.1 ± 0.64.

With “ATATTTTTTGGAAAGTGTACAATATTATATATTAAA [XGTACX_site2163]”, the “gcPBM binding intensity (ln)” value is 7.82 ± 0.44.

Consider “GAAATACCGGAAAGCAAACACACATTTTAAAACCAT [CACACA_site3861]”, for which the “gcPBM binding intensity (ln)” value stood at 7.9 ± 0.67.

With “ACTTATATTATAAATTGTACAAATATTATATTTGGT [XGTACX_site1424]”, the “gcPBM binding intensity (ln)” value was found to be 7.76 ± 0.54.

In the case of “CACTTACATAATTATTGTACAGATATTATCAAATAA [XGTACX_site567]”, the “gcPBM binding intensity (ln)” value amounted to 7.92 ± 0.23.

For “TTATTTTGTTTATTATGTACACAAAGACATAATAAT [XGTACX_site5648]”, the “gcPBM binding intensity (ln)” value was determined as 7.88 ± 0.33.

Regarding “TTTTTTTTTTTTAAATGTACTTATCAACTTTTATAT [XGTACX_site4641]”, the “gcPBM binding intensity (ln)” value worked out at 7.95 ± 0.69.

For the sequence “AAAAAAAAAAGACACACACACACACGCATATACATA [CACACA_site7289]”, the “gcPBM binding intensity (ln)” value stood at 7.82 ± 0.38.

Turning to “TACGTAAAAATAATACGTACATATATTTATAGAAAA [XGTACX_site4959]”, the “gcPBM binding intensity (ln)” value was found to be 8.06 ± 0.13.

In the case of “ACGGACAATACGGAAACACACAAGTTATTTTATCAT [CACACA_site7310]”, the “gcPBM binding intensity (ln)” value came out at 7.59 ± 0.73.

On to “AATAAAATAATCCAAGTGCATATGTAAAAATACATT [GTGCAC_site9576]”, for which the “gcPBM binding intensity (ln)” value worked out at 8.76 ± 0.26.

For “AATATATGTAAATGGACACACACATATATATATATA [CACACA_site9220]”, the “gcPBM binding intensity (ln)” value amounted to 9.26 ± 0.58.

Consider “TTCTGTGTCTAAAAATGTACGGGAATATATAAAAGT [XGTACX_site2090]”, for which the “gcPBM binding intensity (ln)” value came to 8.5 ± 0.61.

Turning to “ACATAATATATATATTAACACACATCCTTTTATGTA [CACACA_site8317]”, the “gcPBM binding intensity (ln)” value is 8.08 ± 0.54.
